The values that follow come from PubChem BioAssay AID463173 (ICCB-Longwood Screening Facility, Harvard Medical School, 2010).

In all, about 52,000 compounds went through this assay and about 4,300 (8.3%) were called active. No stated cut-off is given here; in the data, active means survival mostly below about 52% (no sharp cut-off); inactive means mostly above about 56%. The list shows a part of the results.

The test system of the assay is DeltatarO mutant. Nature of the assay: growth inhibition of S. aureus wild type versus tarO mutant, primary screen, teichoic acid synthesis inhibitors, RN4220, OD600 (AID 463173). The settings on record: OD600, 18 h, hits give low values, screened at 18.75 µg/mL (by protocol).
With `CCCC(CCC)C(=O)NC1CC(=O)N(c2ccc3c(c2)OCCO3)C1` (stereo not drawn), the survival was inactive: 105%. Regarding `O=C(Nc1nnc(S(=O)(=O)N2CCc3ccccc32)s1)c1cccc(Cl)c1`, the survival is active: 1%. For `CCOC(=O)c1cccc(N2C(=O)C3C(C(=O)NC4CC4)C4(C)C=CC3(O4)C2C(=O)NC(C)(C)C)c1` (stereo not drawn) the value was inactive: 92%; for `COc1ccc(NC(=O)C2CCCN(c3nnc(C)c4c(C)n(-c5ccccc5)nc34)C2)cc1Cl` (stereo not drawn), inactive: 102%; for `CCOc1ccc(CC(=O)Nc2c(C(=O)c3ccccc3)oc3ccc(OC)cc23)cc1OCC`, inactive: 69%. Then `CCc1ccccc1NC(=O)Cn1c(=O)n(Cc2ccc(OC)cc2)c(=O)c2oc3ccccc3c21`, with inactive: 70%; and `CN(Cc1ccccc1)C(=O)CSc1nc(-c2ccc(F)cc2)cc(C(F)(F)F)n1`, with active: 31%. As to `O=C(COc1ccc(Cl)cc1)Nc1ccccc1OCc1cc(=O)n2ccccc2n1`, the survival was inactive: 86%. `CCc1ccc(NC(=O)C(CC)n2c(=O)c(-c3ccccc3NC(C)=O)nc3ccccc32)cc1` (stereo not drawn): the survival was inactive: 65%. For `C#CCSc1cccc2cccnc12` the value was inactive: 108%; for `CCN(CC)c1ccc(NC(=O)C2CCN(S(=O)(=O)c3cnc[nH]3)CC2)c(C)c1`, inactive: 97%; for `CCOC(=O)c1c(C)c(-c2ccccc2)n(CC(=O)NC(CC)Cc2ccccc2)c1C` (stereo not drawn), inactive: 108%.

As for `O=C(CSc1nc(-c2ccc(F)cc2)[nH]c1-c1ccc(F)cc1)Nc1ccc2c(c1)OCCO2`, the survival was inactive: 76%. Then `Nc1nonc1-n1nnc(CO)c1CO`, with inactive: 63%; and `Cc1ccc(C)c(N2CCN(C(=O)c3cnn(-c4ccccc4Cl)c3C3CCN(C(=O)OC(C)(C)C)CC3)CC2)c1`, with inactive: 80%. For `O=C1OC(C(=O)Nc2cc(C(F)(F)F)ccc2Cl)Cc2ccccc21` (stereo not drawn) the value was active: 56%; for `COc1ccc(Cc2nc3ccc(C(=O)NCc4ccccc4Cl)cc3o2)cc1`, inactive: 66%.

For the compound `Cc1ccc(NC(=O)CS(=O)CC(=O)Nc2ccc3c(c2)CCC3)cc1` (stereo not drawn), the survival is inactive: 85%. In the case of `Cc1cccc(OCC(=O)Nc2cccc3cccnc23)c1C`, the survival was active: 60%.

For `CCOC(=O)c1c(NC(=O)c2ccccc2OCC)sc2c1CCC(CC)C2` (stereo not drawn), the survival was active: -2%.

Take `COc1ccc(N2CCN(C(=O)CCc3c(C)nc4cc(-c5ccc(OC)cc5OC)nn4c3C)CC2)cc1`: the survival is inactive: 104%. Then `CN(C)S(=O)(=O)c1ccc(C(=O)NCCSc2c(-c3ccc(Cl)cc3)[nH]c3ccccc23)cc1`, with inactive: 67%; and `CCCOc1ccc(C2C(=O)N(C3CCCCCC3)CC(=O)N2CCC)cc1OC` (stereo not drawn), with active: -4%. Then `COc1cccc(C(=O)Nc2ccc3oc(-c4cccc5c(Br)cccc45)nc3c2)c1`, with inactive: 59%; and `COc1ccccc1N1CCN(C(=O)c2cnn(-c3ccc(F)cc3F)c2C2CCNCC2)CC1`, with active: 32%; and `COc1ccc(S(=O)(=O)NCC(c2ccc(N(C)C)cc2)N2CCc3ccccc32)cc1OC` (stereo not drawn), with inactive: 95%. For `CCOC(=O)c1ccccc1NC(=O)Cn1c2ncccc2c(=O)n1-c1ccccc1` the value was inactive: 98%; for `COc1ccc(C(=O)NCC23C=CC(O2)C2C(=O)N(c4ccccc4C)C(=O)C23)cc1` (stereo not drawn), inactive: 96%; for `CC(CN=CC1=C(O)CC(C)(C)CC1=O)N=CC1=C(O)CC(C)(C)CC1=O` (stereo not drawn), inactive: 101%. As for `CCN(Cc1ccccc1)C(=O)CN1C(=O)COc2ccc(S(=O)(=O)N3CCCCCC3)cc21`, the survival was inactive: 95%. For `CCn1cc2nc(SCc3ccccc3F)n(Cc3ccc(C)cc3)c(=O)c2n1` the value was inactive: 73%. Then `Cc1ccc(NC(=O)CCS(=O)(=O)c2cccc3nsnc23)c(C)c1`, with inactive: 61%; and `CCOc1ccc(NC(=O)CCS(=O)(=O)c2ccc3c(c2)n(C)c(=O)c(=O)n3C)cc1`, with inactive: 87%; and `Cc1ccc2cccc(NC(=O)C(C)(C)Oc3ccc(Br)cc3)c2n1`, with inactive: 63%. For `CCCS(=O)(=O)Nc1cc2c(cc1NCc1ccccc1)n(C)c(=O)n2C` the value was inactive: 82%; for `CCOc1ccc(NC(=O)CSc2nc(-c3ccc(F)cc3)cc(C(F)(F)F)c2C#N)cc1`, inactive: 124%; for `Cc1cccc(C)c1NC(=O)Cn1nc(C)c2sc3ccccc3c2c1=O`, inactive: 99%. As for `COc1ccc(-c2cn3c(n2)sc2cc(C(=O)Nc4cc(Cl)ccc4C)ccc23)cc1`, the survival is inactive: 57%. For `CCc1ccc(C(=O)Nc2ccc3nn(-c4ccc(C)c(Cl)c4)nc3c2)cc1` the value was inactive: 101%.

Consider `O=C(NC(CO)C(=O)O)c1ccncc1` (stereo not drawn), for which the survival was inactive: 94%. Then `Cc1ccc(CN2CCc3nc(SCC(=O)Nc4cccc(C)c4C)[nH]c(=O)c3C2)cc1`, with inactive: 82%; and `CCOC(=O)CSc1nc2ccc(NC(=O)c3ccccc3)cc2s1`, with inactive: 77%; and `COc1cc(-c2nnc(SCCOc3ccc(C)c(Cl)c3)o2)cc(OC)c1OC`, with inactive: 115%.

For `COc1cccc(C(=O)c2cn(CC(=O)Nc3cccc(C)c3C)c3nc(C)ccc3c2=O)c1`, the survival is inactive: 67%. As to `CCOCCCn1c(SCC(=O)Nc2ccc(OC)cc2OC)nc2ccccc2c1=O`, the survival was inactive: 89%. Take `Cc1c(NC(=O)c2cc(=O)c3cc(Cl)ccc3o2)c(=O)n(-c2ccccc2)n1C`: the survival is active: 43%.

`Cn1cnc2c(=O)oc3ccc(S(=O)(=O)N4CCN(c5cccc(Cl)c5)CC4)cc3c21`: the survival is active: -5%. For `Cc1cccc(-c2nc(Cn3c(SCc4cccc(C(F)(F)F)c4)nc4ccncc43)c(C)o2)c1` the value was inactive: 79%; for `Fc1ccc2c(c1)NC(c1ccncc1)=NC(c1cccs1)=N2`, active: 30%.

On to `COc1ccc(N2CC(NC(=O)c3ccc(S(=O)(=O)N4CCCCC4)cc3)CC2=O)cc1OC` (stereo not drawn), for which the survival was inactive: 113%. For the compound `Cc1cccc(NC(=O)c2cc(S(=O)(=O)N3CCC4(CC3)OCCO4)ccc2F)c1`, the survival is inactive: 85%.

In the case of `O=C(CCNS(=O)(=O)c1ccc2c(c1)CCN2C(=O)C1CC1)Nc1ccc(F)cc1F`, the survival was inactive: 72%. For `CCOC(=O)c1ccc(NC(=O)Cn2cc(C(=O)c3ccc(Cl)cc3)c(=O)c3ccc(C)nc32)cc1` the value was inactive: 78%. Take `COc1cc(OC)cc(-c2nc3nc(C)c(CCC(=O)Nc4cc(F)ccc4F)c(C)n3n2)c1`: the survival is inactive: 74%.

Regarding `O=C(NCCc1csc(-c2ccc(F)cc2)n1)c1ccc(Br)o1`, the survival was inactive: 92%. In the case of `Cc1ccccc1CN1CCN(CC(=O)NCc2ccccc2Cl)C1=O`, the survival was inactive: 78%. As to `COc1ccc2oc(-c3ccc(C)c(NC(=O)Cc4ccc(Cl)cc4)c3)nc2c1`, the survival is inactive: 151%.

Turning to `O=C(C1=C(N2CCCCC2)c2ccccc2S(=O)(=O)N1)c1ccccc1`, the survival was inactive: 94%.

Take `CCC(=O)Nc1nnc(S(=O)(=O)N2CCc3ccccc32)s1`: the survival is inactive: 76%.

For the compound `Cc1nc2c(C(=O)NC(C)c3ccccc3)cnn2c(C)c1Cc1ccccc1` (stereo not drawn), the survival was inactive: 72%.

As for `COC(=O)c1cc2occc2n1Cc1nc(-c2ccc(C)cc2)oc1C`, the survival is inactive: 69%. With `CCN(CC)C(=O)c1ccccc1C`, the survival was active: 48%. Then `COc1cccc2sc(N(Cc3cccnc3)C(=O)C3COc4ccccc4O3)nc12` (stereo not drawn), with inactive: 102%. For the compound `COc1ccc(N(C)C(=O)CCS(=O)(=O)c2cccc3nsnc23)cc1`, the survival was inactive: 49%. Then `Cc1c(NC(=O)c2ccccc2F)cccc1-c1nc2cccnc2s1`, with inactive: 90%; and `CCOc1ccc(-n2c(SCC(=O)NC3CCCC3)nnc2-c2ccoc2C)cc1`, with inactive: 92%; and `Cc1ccc(Nc2nc3ccccc3c3nncn23)cc1C`, with active: -4%. Then `O=C(Cn1ncc2c(=O)oc3ccccc3c21)NCc1ccc(Cl)cc1`, with inactive: 86%. Then `CC(=O)N1CCCc2cc(S(=O)(=O)N(C)CC(=O)Nc3ccc(Cl)cc3C)ccc21`, with inactive: 113%; and `CCn1cc(C(=O)NCc2ccccc2)c(=O)c2cc(S(=O)(=O)N3CCCCCC3)ccc21`, with inactive: 67%. With `COc1ccc(NC(=O)c2ccc(COc3ccccc3OC)o2)cc1OC`, the survival is inactive: 61%.

Consider `Cc1ccc(OCc2nc3ccccc3n2Cc2ccccc2Cl)cc1`, for which the survival was active: -8%. For `COc1ccc(Br)cc1CNC(=O)C1CCCCN1S(=O)(=O)c1ccc(F)cc1` (stereo not drawn) the value was inactive: 81%; for `CCCNC(=O)CCc1c(C)nc2nc(-c3cc(OC)cc(OC)c3)nn2c1C`, inactive: 81%; for `COc1cccc(CNC(=O)CCC(=O)N2Cc3cccc(OC)c3Oc3ncccc32)c1OC`, inactive: 80%.

`CCc1ccc(-c2[nH]c3c(c2-c2sc(C)c(C(=O)OC)c2O)c(=O)n(C)c(=O)n3C)cc1`: the survival is inactive: 51%. As for `CCN(CC)/C(N)=N/c1nc(C)cc(C)n1`, the survival is inactive: 93%. Then `CC1Cn2cc(C(=O)Nc3cccc(C(F)(F)F)c3)c(=O)c3c(Cl)ccc(c32)O1` (stereo not drawn), with inactive: 83%.

As for `Cc1ccc(-c2onc(C)c2C)cc1S(=O)(=O)NC1CCCCC1`, the survival is inactive: 77%. For `COC(=O)c1nnn(CC(=O)Nc2ccc(Br)c(C)c2)c1N` the value was inactive: 90%; for `Cc1ccc(-n2c(=O)c3c(c4cc(C)ccc4n3C)n(CC(=O)Nc3cc(C)cc(C)c3)c2=O)cc1`, inactive: 105%; for `COc1ccc2c(c1)CCc1c(C(=O)Nc3c(C)nn(Cc4ccc(C)cc4)c3C)noc1-2`, inactive: 64%. Take `Cc1ccc(C)c(NC(=O)c2cc(S(=O)(=O)NCCC3=CCCCC3)ccc2F)c1`: the survival was active: 52%.

Regarding `CCCN(CCC)C(=O)C1CCN(c2ncnc3c2nc2n3CCCCC2)CC1`, the survival is inactive: 84%. For `COc1ccc(CNC(=O)C(C(C)C)N2Cc3ccccc3C2=O)cc1` (stereo not drawn) the value was active: -5%; for `CCOc1ccc(CCNC(=O)CN(c2ccc(C)cc2)S(=O)(=O)N(C)C)cc1OCC`, inactive: 84%. Then `O=c1c(S(=O)(=O)c2ccccc2)cn(Cc2ccc(F)cc2)c2cc(N3CCCCC3)c(F)cc12`, with inactive: 80%; and `CC(NC(=O)C(=O)Nc1c2c(nn1-c1ccc(F)cc1)CSC2)c1ccccc1` (stereo not drawn), with active: -2%.
